Measurements: PubChem BioAssay AID894 (National Center for Advancing Translational Sciences (NCATS), 2007)
Where “and” joins values, the source holds several entries; their conditions need not be identical. Equal values may be shown once. Hit rate of the full screen: of about 150,000 compounds, about 6,500 (4.3%) were called active. Inconclusive results, whose numbers are uncertain, are shown with a selection of clear calls. The call rests on the fitted dose curve; in most records, active means well fitted inhibition curve with a large enough effect (not every such curve was filed as active); inconclusive means small, poorly fitted or top-dose-only effect, or another doubt; inactive means no such curve, though single readings can be large or run the other way. No potency is given beside an inconclusive call; the fits are too rough. The source holds several records for some structures; these can differ, active in one and inactive in another.
On the % scale 0 is the no-effect control and ±100 the full control effect; potency means the concentration at half of the fitted maximal effect; tags describe the fitted curve by direction and shape.

What follows are molecules tested against 15-hydroxyprostaglandin dehydrogenase [NAD(+)] (Homo sapiens) (UniProt P15428) (assay: qHTS Assay for Inhibitors of HPGD (15-Hydroxyprostaglandin Dehydrogenase)). Settings: purified HPGD, NADH fluorescence kinetic, PGE2 substrate; activity change, negative = inhibition: hits give low values.
UniProt P15428, sequence (P15428 whole entry, looked up): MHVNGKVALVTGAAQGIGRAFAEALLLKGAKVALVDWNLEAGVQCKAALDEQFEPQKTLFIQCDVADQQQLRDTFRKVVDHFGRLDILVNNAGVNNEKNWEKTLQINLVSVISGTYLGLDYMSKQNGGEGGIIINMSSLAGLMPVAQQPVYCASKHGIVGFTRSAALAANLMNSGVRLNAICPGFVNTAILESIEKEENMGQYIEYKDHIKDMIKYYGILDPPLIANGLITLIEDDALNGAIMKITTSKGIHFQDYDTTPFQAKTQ
Summary of the method: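 NADH formation kinetics: reaction with 30 uM PGE2 and 1 mM NAD+ (final), 20 nM enzyme, Tris-HCl pH 8 with Tween 20, after 15 min compound preincubation at room temperature. Fluorescence change, last versus first of five reads.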
Cn1c(CC(=O)NC(C)(C)CO)c(Sc2ccccc2)c2ccccc21 was tested, and the activity change, negative = inhibition was inactive: -11.4%. O=C(/C=C/c1ccccc1)Nc1cc(S(=O)(=O)N2CCOCC2)ccc1N1CCCC1 was tested, and the Potency was inconclusive [inhibitor, partial curve, poor fit]. In the case of Cc1ccc(-n2c3c(cc(C(=O)NC4CCSC4=O)c2=O)C(=O)CC(C)(C)C3)cc1 (stereo not given), the Potency is reported as inconclusive [inhibitor, partial curve]. COc1cc(C2C(C#N)=C(N)N(Nc3ccccc3)C3=C2C(=O)CC(C)(C)C3)ccc1OCc1cccc(F)c1 (stereo not given) was tested, and the Potency was inconclusive [inhibitor, partial curve]. O=C(Oc1ccc2c(-c3ccccc3)cc(=O)oc2c1)C1CCCCC1 was tested, and the Potency was inconclusive [inhibitor, partial curve]. For CCOC(=O)CC1=CC(C)(CC(=O)OCC)C(C#N)(C#N)C(N)=C1C#N (stereo not given), the activity change, negative = inhibition was inactive: -0.892%. O=c1c2c3c(sc2n2cnnc2n1Cc1ccccc1)CN(Cc1ccccc1)CC3 was tested, and the Potency was inconclusive [inhibitor, partial curve]. In the case of O=C(NCc1cccs1)c1ccc2c(c1)ncn2C1CCCC1, the Potency is reported as inconclusive [inhibitor, partial curve]. With COCCN1CN(S(=O)(=O)c2ccccc2)c2nc3ccccc3nc21 the Potency was inconclusive [inhibitor, partial curve]. In the case of CCCCOC(=O)Nc1ccc(C(C)C)cc1, the Potency is reported as active: 12.6 µM. COc1ccc(CC(=O)Nc2ccc(N3CCN(c4ccc(OC)cc4)CC3)c(C#N)c2)cc1 was tested, and the Potency was inconclusive [inhibitor, single point]. For Cc1c(N=Cc2ccc(O)c(Br)c2)cccc1[N+](=O)[O-], the Potency was inconclusive [inhibitor, single point]. In the case of O=C(C1CCC(Cn2c(=S)[nH]c3ccccc3c2=O)CC1)N1CCOCC1 (stereo not given), the Potency is reported as active: 1.58 µM. CNCc1ccccc1Sc1ccc(O)c(O)c1 was tested, and the Potency was active: 17.8 µM. For Cc1ccc(-c2c(C#N)c(N)n(-c3ccc(C)cc3)c(=O)c2C#N)cc1, the Potency was inconclusive [inhibitor, partial curve]. O=C(Nc1ccc2oc(-c3cccc(F)c3)nc2c1)c1ccccc1F was tested, and the Potency was inconclusive [inhibitor, partial curve]. In the case of Cc1ccc(S(=O)(=O)N2CCCC2C(=O)Nn2cnnc2)cc1 (stereo not given), the Potency is reported as inconclusive [inhibitor, single point]. In the case of Nn1c(Cc2ccccc2F)nnc1SCCOc1ccc(Cl)cc1, the Potency is reported as inconclusive [inhibitor, partial curve]. With CCCOc1ccc2c3c(c(=O)oc2c1OCCC)CCCC3 the Potency was inconclusive [inhibitor, partial curve]. With COc1cc2c(cc1NCc1ccccn1)oc1ccccc12 the Potency was inconclusive [inhibitor, partial curve]. For CCCCCCCCCCCCCCCC(=O)C(F)(F)F, the activity change, negative = inhibition was inactive: 0.193%. For CCCCn1c(Cc2ccccc2)n[nH]c1=S, the Potency was inconclusive [inhibitor, single point]. With CCOc1nc(-c2ccc(C)cc2)ccc1-c1noc(COC)n1 the Potency was inconclusive [inhibitor, partial curve]. In the case of Cc1cc(=O)[nH]c(SCc2nc3ccc([N+](=O)[O-])cc3[nH]2)n1, the Potency is reported as inconclusive [inhibitor, partial curve, poor fit]. With CCOC(=O)CSc1nnc(NC(=O)c2cccc(S(=O)(=O)N3CCCCCC3)c2)s1 the Potency was inconclusive [inhibitor, single point]. With COCCCNC(=S)NC(=O)c1ccccc1 the activity change, negative = inhibition was inactive: -5.04%. Cc1cc(=O)oc2cc(OCC#N)ccc12 was tested, and the Potency was inconclusive [inhibitor, partial curve]. For Cc1cc(C)c2[nH]c(O)c(N=NC(=S)NCC3CCCO3)c2c1 (stereo not given), the activity change, negative = inhibition was inactive: -15.3%. Cc1cc(C)n(C(=O)CNC(=O)COc2ccccc2)n1 was tested, and the Potency was active: 31.6 µM. In the case of Cc1noc(C)c1C(=O)N1CCC2(CC1)CCN(c1ccccn1)CC2, the Potency is reported as inconclusive [inhibitor, partial curve]. For COc1ccc2ccccc2c1-c1c(OC)ccc2ccccc12, the activity change, negative = inhibition was inactive: -5.37% and inactive: 0.725%. In the case of Cc1ccc(CNC(=O)CN(c2cccc([N+](=O)[O-])c2)S(=O)(=O)c2ccccc2)cc1, the Potency is reported as inconclusive [inhibitor, partial curve]. In the case of Nc1ccc(-c2ccc(N)c(O)c2)cc1O, the activity change, negative = inhibition is reported as inactive: -8%. In the case of c1ccc2c(c1)NC1(CCCCCC1)n1c-2nc2ccccc21, the Potency is reported as inconclusive [inhibitor, partial curve]. For N#CCc1ccc(C(=O)c2ccccc2F)s1, the Potency was active: 20 µM. For O=C1NC(=S)S/C1=C/c1ccc(N2CCOCC2)o1, the Potency was active: 7.94 µM. For COc1ccc(NC(=O)Cn2nnc(-c3ccccc3NC(=O)c3cccs3)n2)cc1, the activity change, negative = inhibition was inactive: -27.6%. For CCn1c(=O)c2c(cnn2C)c2ccccc21, the Potency was active: 31.6 µM. Cc1cccc(C)c1NC(=S)Nc1ccccc1C(=O)NCc1ccco1 was tested, and the Potency was inconclusive [inhibitor, partial curve, poor fit]. COc1cccc(-c2cc(C(F)(F)F)n3nc(N)nc3n2)c1 was tested, and the Potency was inconclusive [inhibitor, partial curve]. In the case of CC(=O)Nn1cc2c(c1-c1ccccc1)c(=O)n(C)c(=O)n2C, the Potency is reported as inconclusive [inhibitor, single point]. With Cc1[nH]n(-c2ccccc2)c(=O)c1C(C[N+](=O)[O-])c1ccc(Br)cc1 (stereo not given) the Potency was inconclusive [inhibitor, partial curve]. C/C(=N/Nc1nc(-c2ccc(Cl)cc2)cs1)c1cccs1 was tested, and the activity change, negative = inhibition was inactive: -12.9%. In the case of c1csc(-c2nn3c(C4COc5ccccc5O4)nnc3s2)c1 (stereo not given), the Potency is reported as active: 8.91 µM. In the case of OCc1cn(-c2ccccc2)nc1-c1ccc(-c2nn(-c3ccccc3)cc2CO)cc1, the Potency is reported as inconclusive [inhibitor, partial curve]. For O=C(COC(=O)c1ccc(Br)cc1)NCc1ccccc1, the Potency was inconclusive [inhibitor, full curve, poor fit]. With O=C(OCCN(C1=NS(=O)(=O)c2ccccc21)c1ccccc1Cl)c1ccc(Cl)cc1 the Potency was inconclusive [inhibitor, partial curve]. For N#CCCn1c(=O)c(-c2ccccc2)nc2cnc(Oc3cccc(Cl)c3)nc21, the Potency was inconclusive [inhibitor, partial curve]. With CCOC(=O)CCc1c(C)c(C#N)c2nc3ccccc3n2c1-n1ccnc1 the Potency was inconclusive [inhibitor, single point]. CN(CCO)c1nc(N)c2c(N)nc3c(c2c1C#N)CC(=O)N3C1CCCC1 was tested, and the Potency was inconclusive [inhibitor, partial curve]. For CCCCCCCCCCCC1=C(O)C(=O)C=C(O)C1=O, the Potency was active: 14.1 µM. In the case of Cc1cc2oc(=O)cc(C)c2cc1NC(=O)CCC(=O)O, the Potency is reported as inconclusive [inhibitor, partial curve]. For N#C/C(=C\c1cn[nH]c1-c1ccccc1)C(=O)NC1CCCCCC1, the activity change, negative = inhibition was inactive: -19.7%. With COc1ccc2nc3oc(C(=O)N4CCCCC4)cc3cc2c1 the Potency was inconclusive [inhibitor, partial curve]. O=C(Cc1ccc(F)cc1)OCC(=O)c1cc2ccccc2o1 was tested, and the Potency was inconclusive [inhibitor, partial curve]. In the case of Cc1cc2nc([C@H](C)C(=O)c3ccc(Cl)cc3)c(=O)[nH]c2cc1C, the activity change, negative = inhibition is reported as inactive: -10.5%. CCc1nc2oc3ccccc3c(=O)c2c(=O)n1Cc1ccc(OC)cc1 was tested, and the Potency was active: 25.1 µM. With O=C(c1cc([N+](=O)[O-])ccc1N1CCCCC1)N1CCCCC1 the Potency was inconclusive [inhibitor, single point]. Cn1nnnc1SCc1cc(=O)n2ccsc2n1 was tested, and the activity change, negative = inhibition was inactive: -4.25%. For Cc1cccc(C2Nc3ccccc3C(=O)N2c2ccc(F)cc2)n1 (stereo not given), the Potency was inconclusive [inhibitor, partial curve]. In the case of COc1cc(/C=N/c2oc(-c3ccccc3)cc2C#N)ccc1O, the Potency is reported as inconclusive [inhibitor, partial curve]. With Cc1c(C(=O)Oc2ccc(-c3cnc4ccccc4n3)cc2)cccc1[N+](=O)[O-] the activity change, negative = inhibition was inactive: -25.7%. For CCCCNc1nc(C)nc2c1nc(-c1ccccc1)n2CCCN(CC)CC, the Potency was inconclusive [inhibitor, partial curve]. For O=C1C2CC=C(Cl)CC2C(=O)N1CCCCCCN1C(=O)C2CC=C(Cl)CC2C1=O (stereo not given), the Potency was active: 15.8 µM. In the case of O=C(CSc1nnc(-c2c[nH]c3ccccc23)o1)c1ccc(-c2ccccc2)cc1, the activity change, negative = inhibition is reported as inactive: -28.9%. For COC(=O)c1cccc(Nc2ncnc3ccc(C)cc23)c1, the Potency was inconclusive [inhibitor, partial curve]. In the case of CCOC(=O)c1[nH]c2ccc(F)cc2c1NC(=O)C(C)N1CCc2cc(OC)c(OC)cc2C1 (stereo not given), the Potency is reported as inconclusive [inhibitor, partial curve]. With O=S(=O)(NCc1ccco1)c1ccc2c(c1)Cc1ccccc1-2 the Potency was inconclusive [inhibitor, partial curve]. With CCCCOc1ccc(-c2nc(=S)[nH][nH]2)cc1 the Potency was inconclusive [inhibitor, partial curve]. In the case of COc1cc(-c2[nH]nc3c2C(c2ccoc2)C(C#N)=C(N)O3)cc(OC)c1OC (stereo not given), the Potency is reported as inconclusive [inhibitor, partial curve, poor fit].
